According to the supplement of paper PMC4604168 (melanoma cell lines):
Some of the results follow. Single values are uncertain, as repeats are few or missing.

Experiments:
Assay in all cases: cell count relative to DMSO control; melanoma cells; higher = more viable cells
Conditions in all cases: library dose: low library concentration; 72 h
MZ2-MEL = system: MZ2-MEL
MeWo = system: MeWo
RPMI7951 = system: RPMI7951
RVH-421 = system: RVH-421
SkMel28 = system: SkMel28
SkMel2 = system: SkMel2
SkMel30 = system: SkMel30
SkMel5 = system: SkMel5
UACC257 = system: UACC257
UACC62 = system: UACC62
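Further: cell number obtained by counting DAPI-stained nuclei in high-throughput microscope images with image analysis software, screen run in 1,536-well plates.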

Structure (SMILES) | cell count (MZ2-MEL) [%] | cell count (MeWo) [%] | cell count (RPMI7951) [%] | cell count (RVH-421) [%] | cell count (SkMel28) [%] | cell count (SkMel2) [%] | cell count (SkMel30) [%] | cell count (SkMel5) [%] | cell count (UACC257) [%] | cell count (UACC62) [%]
Cn1cc(C2=C(c3cn(C4CCN(Cc5ccccn5)CC4)c4ccccc34)C(=O)NC2=O)c2ccccc21 [Enzastaurin] + Cc1cc(N2CCOCC2)cc2[nH]c(-c3c(NC[C@@H](O)c4cccc(Cl)c4)cc[nH]c3=O)nc12 [BMS536924] (first compound 0.8 µM, partner dose 0.2 µM) | 98.5 | 97.3 | 102 | 92.8 | 94.1 | 102 | 91.3 | 92.6 | 88.1 | 95.4
Cn1cc(C2=C(c3cn(C4CCN(Cc5ccccn5)CC4)c4ccccc34)C(=O)NC2=O)c2ccccc21 [Enzastaurin] + O=C(O)c1ccc(-c2c[nH]c3ncc(-c4ccccc4)cc23)cc1C1CCCC1 [GSK650394] (first compound 0.8 µM, partner dose 0.16 µM) | 92.2 | 86.5 | 84.7 | 99.1 | 82.4 | 113 | 121 | 91.6 | 90.2 | 101
N.N.[Cl][Pt][Cl] [cisplatin] + O=S(=O)(c1ccccc1)N(CC(F)(F)F)c1ccc(C(O)(C(F)(F)F)C(F)(F)F)cc1 [T0901317] (first compound 1.6 µM, partner dose 1.4 µM) | 98.6 | 94.7 | 118 | 112 | 108 | 99.4 | 105 | 91.5 | 84.4 | 103
Cn1cc(C2=C(c3cn(C4CCN(Cc5ccccn5)CC4)c4ccccc34)C(=O)NC2=O)c2ccccc21 [Enzastaurin] + O=S(=O)(c1ccccc1)N(CC(F)(F)F)c1ccc(C(O)(C(F)(F)F)C(F)(F)F)cc1 [T0901317] (first compound 0.8 µM, partner dose 1.4 µM) | 89.1 | 105 | 96.2 | 88.1 | 93.8 | 97.2 | 92.5 | 82.2 | 93.2 | 83.2
N.N.[Cl][Pt][Cl] [cisplatin] + Cc1ccc(NC(=O)c2cccc(N(C)C)c2)cc1NC(=O)c1ccc(O)cc1 [ZM336372] (first compound 1.6 µM, partner dose 2 µM) | 80 | 104 | 79.8 | 101 | 104 | 102 | 82.3 | 101 | 89.7 | 98.8
Cn1cc(C2=C(c3cn(C4CCN(Cc5ccccn5)CC4)c4ccccc34)C(=O)NC2=O)c2ccccc21 [Enzastaurin] + C=CCn1c(=O)c2cnc(Nc3ccc(N4CCN(C)CC4)cc3)nc2n1-c1cccc(C(C)(C)O)n1 [MK1775] (first compound 0.8 µM, partner dose 0.02 µM) | 106 | 107 | 98.2 | 69.4 | 96.4 | 96.7 | 94.6 | 112 | 91.3 | 88.6
Cn1cc(C2=C(c3cn(C4CCN(Cc5ccccn5)CC4)c4ccccc34)C(=O)NC2=O)c2ccccc21 [Enzastaurin] + CO[C@@H]1[C@H](N(C)C(=O)c2ccccc2)C[C@H]2O[C@]1(C)n1c3ccccc3c3c4c(c5c6ccccc6n2c5c31)C(=O)NC4 [Midostaurin] (first compound 0.8 µM, partner dose 0.08 µM) | 94.6 | 86.3 | 90.7 | 80 | 106 | 91.5 | 95.4 | 84.7 | 62.3 | 84
Cn1cc(C2=C(c3cn(C4CCN(Cc5ccccn5)CC4)c4ccccc34)C(=O)NC2=O)c2ccccc21 [Enzastaurin] + Cn1cncc1[C@@](N)(c1ccc(Cl)cc1)c1ccc2c(c1)c(-c1cccc(Cl)c1)cc(=O)n2C [tipifarnib] (first compound 0.8 µM, partner dose 0.01 µM) | 99.1 | 110 | 98.5 | 90.7 | 84.7 | 94.5 | 117 | 97.4 | 82.8 | 64.5
N.N.[Cl][Pt][Cl] [cisplatin] + Oc1nc(-c2ccc(C(F)(F)F)cc2)nc2c1CSCC2 [XAV939] (first compound 1.6 µM, partner dose 2 µM) | 93.3 | 107 | 95.9 | 80.4 | 92.5 | 100 | 95.2 | 89.6 | 83.3 | 91.2
C[As](C)SC[C@H](NC(=O)CC[C@H](N)C(=O)O)C(=O)NCC(=O)O [Darinaparsin] + O=C(Nc1cccc(Cl)c1)Nc1ncc(CCNc2ncnc3ccsc23)s1 [SNS314] (first compound 0.4 µM, partner dose 0.0008 µM) | 107 | 95.1 | 94.9 | 95.3 | 86 | 93.2 | 73.6 | 97.9 | 74.6 | 90.4
N.N.[Cl][Pt][Cl] [cisplatin] + O=C(Nc1cccc(Cl)c1)Nc1ncc(CCNc2ncnc3ccsc23)s1 [SNS314] (first compound 1.6 µM, partner dose 0.0008 µM) | 102 | 96.1 | 112 | 96.8 | 111 | 97 | 131 | 102 | 97.7 | 84.8
